Assay results as given in the RNAGym collection of RNA variant scans (doi:10.1093/nar/gkz1192).
The source gives no read counts; variants with many changes may rest on few reads.

B1: CPEB3 Ribozyme (parent)
chain: UAACAGGGGGCCACAGCAGAAGCGUUCACGUCGCAGCCCCUGUCAGAUUCUGGUGAAUCUGCGAAUUCUGCUGUAUAUCUC

Variants of: B1
Assay: self-cleavage, relative activity (ratio to wild type); higher = more cleavage; in vitro, sequencing
Procedure, shortened: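 Relative activity was defined as the cleaved/total read fraction for a variant divided by the same fraction for the unmutated ribozyme. CPEB3 self-cleaving ribozyme libraries were made by rounds of error-prone PCR, barcoded, and transcribed in vitro with T7 RNA polymerase for 5 hours at 37°C, and cleavage ran through transcription plus a 15 min DNase I step before EDTA. Illumina sequencing of template-switched reverse transcripts gave the reads, and DNA sequencing mapped the barcodes. Averages come from three batches, using variants with at least 5 reads.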

Question: Which self-cleavage does the source give for UAACAGGGGGCCACAGCAGAGGCGUUCACCUCGCAGCCCCUGUCAGAUUCUGGUGGAUCUGCGAAUUCAGCUGUAUAUCUC [A21G G30C A56G U69A] here?
Answer: 0.13

Question: With UAACAGGGGGCCACAGCAGAGGCGUUCACGUCGGAGCCCCUGUCAGGUUCUGGUGAAUCUGCGAAUUCUGCUGUAUAUCUC [A21G C34G A47G] as the variant, how does the self-cleavage read?
Answer: 0.18

Question: For UAACAGGGGGCCACAGCAGAGGCGUUCACGUCGCAGCCCCUGUCUGAUUCUGGUGAAUCUGCGAAUUCUGCUGAAUAUCUC [A21G A45U U74A], which self-cleavage is on record?
Answer: 0.59

Question: For UAACAGGGGGCCACAGCAGAGUCGUUCACGUCGCAGCCCCUGUCAGAUCCUGGUGAGUCUGCGAAUCCAGCUGUAUGUCUC [A21G G22U U49C A57G U67C U69A A77G], which self-cleavage is on record?
Answer: 0.04

Question: For UAACAGGGGGCCACAGCAGAGGCGUUCACGUAGCAGCCCCUGUCAGAUUCCGGUGAAUCUGCGAAUUCUGCUGUAUAUCUC [A21G C32A U51C], which self-cleavage is on record?
Answer: 0.11

Question: With UAACAGGGGGCCACAGCAGAGGCGUUCACGUCCCGGCCCCUGUCAGAUUAUGGUGAAUCUGCGAAUUCUGCUGUAUACCUC [A21G G33C A35G C50A U78C] as the variant, how does the self-cleavage read?
Answer: 0.06

Question: For UAACAGGGGGCCACAGCAGAGGCGUUCACGUCACAGCCCCAGUCAGAUUCCGGUGAAUCUGCGAAUUCUGCAGUAUAUCUC [A21G G33A U41A U51C U72A], which self-cleavage is on record?
Answer: 0.06

Question: Which self-cleavage does the source give for UAACAGGGGGCCACAGCAGAGGCAUUCACGUCGCAGCCCCUGUCAGAUUCUGGUGAAUCUGCGAGUUCUGCUGUAUAUCUC [A21G G24A A65G] here?
Answer: 0.04

Question: For UAACAGGGGGCCACAGCAGAGGCCUUCACGUCACAGCCCCUGUCAGAUUCUGGUGAAUCUGCGAAUUCUGCUGUGUAUCUC [A21G G24C G33A A75G], which self-cleavage is on record?
Answer: 0.05

Question: With UAACAGGGGGCCACAGCAGAGGCGUUCACGUCGCAGCCCCUGUCAGAUUCUGGUGAAUCUGAGGAUCCUGCUGCAUAUCUC [A21G C62A A64G U67C U74C] as the variant, how does the self-cleavage read?
Answer: 0.12

Question: For UAACAGGGGGCCACAGCAGAGGCGUUCACGUCACAGCCCCUGUCAGACUCUGGUGAAUCUGCGAAUUCUGCUGUAUAUCUC [A21G G33A U48C], which self-cleavage is on record?
Answer: 0.16

Question: With UAACAGGGGGCCACAGCAGAGGCGUUCACGUCGCAGUCCCUGUCAGAUUCUGGCGAAUCUGCGUAUUCUGCUGUAUAUCUC [A21G C37U U54C A64U] as the variant, how does the self-cleavage read?
Answer: 0.1

Question: Which self-cleavage does the source give for UAACAGGGGGCCACAGCAGAGGAGUUCACGUCGCAGCCCCUGUCAGACUCUGGUGAAUCUGCGAGUACUGCUGCAUACCUC [A21G C23A U48C A65G U67A U74C U78C] here?
Answer: 0.05

Question: With UAACAGGGGGCCACAGCAGAGGUGUUCACGUCGCAGCCCCUGUCAGAUCCUGGUGAGUCUGCGAAUUCCGCUGUAUACCUC [A21G C23U U49C A57G U69C U78C] as the variant, how does the self-cleavage read?
Answer: 0.05

Question: With UAACAGGGGGCCACAGCAGAGGCGUUCACGUCACGGCCCCUGUCAGAUUCUGGUGUAUCUGCGAAUUCUGCUGUUUAUCUC [A21G G33A A35G A56U A75U] as the variant, how does the self-cleavage read?
Answer: 0.23

Question: With UAACAGGGGGCCACAGCAGAGGCGUUCACGUCGCAGCCCCUGUCAGAUUCUGGUGAAUCUGCGAGUUCUGCUGUUGAUCUC [A21G A65G A75U U76G] as the variant, how does the self-cleavage read?
Answer: 0.26

Question: With UAACAGGGGGCCACAGCAGAGCCGUUCACGACCCAGCCCCUGUCAGAUUCUGGUCAAUCUGCGAAUUCUGCUGAAUAACUC [A21G G22C U31A G33C G55C U74A U78A] as the variant, how does the self-cleavage read?
Answer: 0.04

Question: For UAACAGGGGGCCACAGCAGAGGCGUUCACAUCGCAGCCCCUGUCAGAUUCCGGUGGACCUGCGAAUUCUGCUGUAUAUCUC [A21G G30A U51C A56G U58C], which self-cleavage is on record?
Answer: 0.14

Question: Which self-cleavage does the source give for UAACAGGGGGCCACAGCAGAGGCGUUCACGUUGCAGCCCCUGUCAGAUUCUGGUGAAUCUGCGAAUUCUGCUGUACAUCUC [A21G C32U U76C] here?
Answer: 0.13

Question: For UAACAGGGGGCCACAGCAGAGGCGUUCACGUCGCAGCCCCUGUCAGAUUCUGGUGAAUCUGCGUAUUCUGCUGCAUAUCUC [A21G A64U U74C], which self-cleavage is on record?
Answer: 0.1

Question: Which self-cleavage does the source give for UAACAGGGGGCCACAGCAGAGGCGUUCACGUCGGAGCCCCUGUCAGAUUCUGGUGAAUCUGCGAAUUCUGCAGUAUAUCUC [A21G C34G U72A] here?
Answer: 0.12

Question: With UAACAGGGGGCCACAGCAGAGGCGUUCACGUCGCAGCCCCUGUCAGAUUCUGGUGAAUCUGCGAAUUGUGCUGUAUGUCUC [A21G C68G A77G] as the variant, how does the self-cleavage read?
Answer: 0.17

Question: With UAACAGGGGGCCACAGCAGAGGCGUUCACGUCGCAGCCCCUGUCAGGUUCCGGUGAAUCUGCGAAUUCUGCUGUAUAUCCC [A21G A47G U51C U80C] as the variant, how does the self-cleavage read?
Answer: 0.51

Question: With UAACAGGGGGCCACAGCAGAGGCGUUCACGUCGCAGCCCGAGUCAGAUUCUGGUGAAUCUGCGAAUUCGGCUGUAUAUCUC [A21G C40G U41A U69G] as the variant, how does the self-cleavage read?
Answer: 0.13

Question: Which self-cleavage does the source give for UAACAGGGGGCCACAGCAGAGGCGUUCACGUCGCAGCCCCUGUCAGAUUCUGGUGAGUCUGCGAAUUCUGCUGUACAUCUC [A21G A57G U76C] here?
Answer: 0.51

Question: Which self-cleavage does the source give for UAACAGGGGGCCACAGCAGAGGCGUUCACGUCGCAGCCCAUGUCGGAUUCUGGUGAAUCUGCGAAUUCUGCUGUAUAUCGU [A21G C40A A45G U80G C81U] here?
Answer: 0.19

Question: For UAACAGGGGGCCACAGCAGAGGCGUUCAUGACGCAGCCCCUGUCAGAUUCUGGUGAAUCUGCGAAUUCUGCUGUAUAACCC [A21G C29U U31A U78A U80C], which self-cleavage is on record?
Answer: 0.08

Question: Which self-cleavage does the source give for UAACAGGGGGCCACAGCAGAGGUGUUCACGUCGGAGCCCUUGUCAGAUUCUGGUGAAUCAGCGAAUUCUGCCGUAUAUCUC [A21G C23U C34G C40U U60A U72C] here?
Answer: 0.04

Question: For UAACAGGGGGCCACAGCAGAGGCGUUCACGUCGCAGCCCAUGUCUGAUUCUGGUGGAUCUGCGAAUUCUGCUGUAUACCUC [A21G C40A A45U A56G U78C], which self-cleavage is on record?
Answer: 0.08

Question: For UAACAGGGGGCCACAGCAGAGGCGUUCACGUCGCAGCCCCUGUCAGGAUCUGGUGAAUCUGCGGAUUCUGCUGUAAGUCUC [A21G A47G U48A A64G U76A A77G], which self-cleavage is on record?
Answer: 0.08

Question: For UAACAGGGGGCCACAGCAGAGGCGUUCACGUCGCAGCCCCUGUCAGAUUCUGGUGGAUCUGCGGAUUCUGCUGUAUACCUC [A21G A56G A64G U78C], which self-cleavage is on record?
Answer: 0.18

Question: Which self-cleavage does the source give for UAACAGGGGGCCACAGCAGAGGCGUUCACGUCGCAGCCCCUGUCAGAUUCUGGUGAAUCUGCGAAUUCUGCUGUCUUUCUC [A21G A75C A77U] here?
Answer: 0.97

Question: For UAACAGGGGGCCACAGCAGAGGCGUUCACGUCGCAGCCCCUGUCAGAUUCUGGUGUAUCUGCGAAUUCCGCUGUAUAUCUC [A21G A56U U69C], which self-cleavage is on record?
Answer: 0.07

Question: With UAACAGGGGGCCACAGCAGAGGCGUUCACGUCACAGCCCCUGUCAGAUUCUGGUGAAUCUGCGAAUUCCGCUGCAUAUCUC [A21G G33A U69C U74C] as the variant, how does the self-cleavage read?
Answer: 0.26
